In all, about 52,000 compounds went through this assay and about 4,300 (8.3%) were called active. Rule as the data show it: active = survival mostly below about 52% (no sharp cut-off); inactive = mostly above about 56%. The list shows a part of the results.
System: DeltatarO mutant
Assay: S. aureus survival, RN4220 and DeltatarO strains – OD600, teichoic acid synthesis inhibitors, primary screen (AID 463173)
Conditions: S. aureus RN4220 wild type/DeltatarO growth, OD600, 18 h, hits give low values, screened at 18.75 µg/mL (by protocol)

Row | SMILES | survival
1 | CCOC(=O)c1c(Nc2ccc(O)cc2)nnc(-c2ccccc2)c1-c1ccccc1 | inactive: 95%
2 | Cc1ccc(S(=O)(=O)c2nnn3c2nc(NCc2ccc4c(c2)OCO4)c2sccc23)cc1 | inactive: 113%
3 | COc1cccc(CNC(=O)Cn2ccc3cc(S(=O)(=O)N4CCCC4)ccc32)c1OC | inactive: 95%
4 | O=C(Nc1ccc(OC(F)(F)F)cc1)C(Cc1ccccc1)NS(=O)(=O)c1cccc2nsnc12 (configuration not stated) | active: 49%
5 | COc1ccccc1C(=O)Nc1cccc(C(=O)OCc2cc(=O)n3nc(C4CC4)sc3n2)c1 | inactive: 74%
6 | CC(C)Cc1nn2c(=O)cc(COC(=O)CNC(=O)c3ccc(C(C)(C)C)cc3)nc2s1 | inactive: 107%
7 | Cc1ccc(C)c(CNC(=O)c2ccc3c(c2)nc2n3CCOC2)c1 | inactive: 67%
8 | CC1CCCN(CCCNC(=O)c2ccc3c(c2)N(Cc2cccc(Cl)c2)C(=O)c2ccccc2S3(=O)=O)C1 (configuration not stated) | inactive: 102%
9 | Cc1ccc2c(NC(=O)C3CC3)cccc2n1 | inactive: 105%
10 | O=C(Nc1ccc(C(=O)N2CCCCC2)cc1)c1nsc2ccccc12 | inactive: 83%
11 | CS(=O)(=O)c1ccccc1-c1nnc(NC(=O)c2ccc3c(c2)OCCO3)o1 | active: -4%
12 | Cc1ccc(C)c(CN2C(=O)c3ccccc3S(=O)(=O)c3ccc(C(=O)Nc4cc(F)ccc4F)cc32)c1 | inactive: 80%
13 | COc1ccc(NC(=O)c2nnn(CC(=O)Nc3c(C)cc(C)cc3C)c2N)cc1OC | inactive: 91%
14 | Fc1ccc(Nc2nc(SCc3cccc(Cl)c3)nc3ccccc23)cc1 | inactive: 70%
15 | COc1ccc(CNC(=O)CN(c2ccc(C)cc2)S(=O)(=O)c2c(C)noc2C)cc1 | inactive: 74%
16 | Cc1ccc(OCCCCn2cnc3ccccc32)cc1 | active: 11%
17 | CCN(CC)S(=O)(=O)c1ccc2c(c1)nc(CN(C)C(=O)Nc1ccc(F)cc1)n2C | inactive: 97%
18 | CC(=O)N(Cc1cccnc1)Cc1cc2cc3c(cc2n2nnnc12)OCO3 | inactive: 103%
19 | CC1=C(C(=O)Nc2ccccc2)C(c2ccc(C)cc2)n2nc(SCc3ccccc3C)nc2N1 (configuration not stated) | inactive: 94%
20 | CCCOc1ccc(C(=O)Nc2nonc2-c2ccc(OCC)cc2)cc1 | inactive: 70%
21 | COc1ccc(CNC(=O)C2=C(C)C(=O)OC23CCCCC3)cc1OC | inactive: 99%
22 | O=C1CCCC(O)=C1C=NCc1cccnc1 | inactive: 88%
23 | Cc1cc(C)cc(NC(=O)CSc2nc3c([nH]c4ccccc43)c(=O)n2-c2ccc(F)cc2)c1 | inactive: 112%

Row | SMILES | survival
24 | CN(CCc1ccccn1)Cc1ccccc1 | inactive: 101%
25 | CCOC(=O)C1CCN(CC(=O)N2C(C)CCCC2C)CC1 (configuration not stated) | inactive: 95%
26 | CCOc1cc(C#N)c(NC(=O)c2ccc(OC)c(S(=O)(=O)N3CCN(c4ccccc4)CC3)c2)cc1OCC | inactive: 98%
27 | N#CC1=C2SCN(C3CCCCC3)CN2C(=O)CC1c1ccc(Br)cc1 (configuration not stated) | inactive: 97%
28 | CCN(CC)C(=O)c1cc(-c2ccccc2)on1 | inactive: 101%
29 | CCCOc1ccc(CNC(=O)c2oc3ccc4c(c3c2C)C(=O)CC(C)(CC)O4)cc1 (configuration not stated) | inactive: 68%
30 | CCCc1ccc(S(=O)(=O)N2CCC(c3nnnn3-c3ccc(OC)cc3)CC2)cc1 | inactive: 70%
31 | CC(=O)Nc1ccc(/C=C2/SC(=Nc3ccccc3)NC2=O)cc1 | inactive: 99%
32 | O=C(C1CCN(S(=O)(=O)c2ccccc2)CC1)N1CCCCC1 | inactive: 81%
33 | Cc1oc2cc3oc(=O)c(CC(=O)N4CCCCC4)c(C)c3cc2c1C | inactive: 73%
34 | COc1cccc(CNc2ncnc3onc(C)c23)c1 | inactive: 125%
35 | COc1ccc(N(CC(=O)N2CCc3ccccc3C2)S(=O)(=O)c2ccc(C)cc2)cc1Cl | inactive: 57%
36 | O=C(Cn1c(=O)n(Cc2ccco2)c(=O)c2oc3ccccc3c21)Nc1ccc(F)c(Cl)c1 | active: 44%
37 | CNc1ccc(-c2nc(-c3ccccc3C)no2)cc1[N+](=O)[O-] | inactive: 83%
38 | COc1ccc(C2=C(C(C)=O)Sc3nnc(-c4ccc(Cl)cc4)n3N2C(C)=O)cc1OC | inactive: 101%
39 | c1ccc(-c2cc3ncc4c(n3n2)-c2ccccc2OC4)cc1 | inactive: 77%
40 | CN1CCN(CCCNC(=O)c2cnn(-c3ccc(F)cc3)c2-n2cccc2)CC1 | inactive: 83%
41 | O=C(CSc1nc(-c2ccco2)cc(C(F)(F)F)n1)N1CCCC1 | inactive: 79%
42 | O=C(Nc1c(C(=O)N2CCN(c3ccccc3F)CC2)oc2ccccc12)c1ccco1 | inactive: 69%
43 | CSc1nc(-c2ccccc2Cl)nc2c1Cc1c(CO)cnc(C)c1O2 | inactive: 114%
44 | COc1ccc(CNC(=O)Cn2c(=O)c3cccn3c3ccccc32)cc1 | inactive: 47%
45 | O=C1C2=C(Nc3ncnn3C2c2ccccc2)c2ccccc21 (configuration not stated) | inactive: 80%
46 | CCc1nnc2c(N3CCN(c4cccc(C(F)(F)F)c4)CC3)nc3ccccc3n12 | inactive: 108%

Row | SMILES | survival
47 | Cc1cc(C)cc(C(=O)n2nc(C)c(S(=O)(=O)N3CCCCCC3)c2C)c1 | inactive: 86%
48 | O=C(Nc1ccc(Cl)cc1Cl)c1cc(S(=O)(=O)N2CCCCCC2)ccc1F | inactive: 76%
49 | O=C1CC(c2cc(F)cc(F)c2)c2cc3c(cc2N1)OCO3 (configuration not stated) | inactive: 97%
50 | Cc1c(C(=O)N2CCN(c3ccc(F)cc3)CC2)sc2nc3n(c(=O)c12)CCC3 | inactive: 72%
51 | CCCCS(=O)(=O)c1oc(-c2cccs2)nc1S(=O)(=O)c1ccc(F)cc1 | inactive: 56%
52 | CCN(C(=O)CSc1nnc(Cn2nnc3ccccc32)o1)c1nc(-c2ccccc2)cs1 | inactive: 80%
53 | O=C(Cn1ccn(-c2ccc(F)cc2)c(=O)c1=O)Nc1ccccc1C(F)(F)F | inactive: 50%
54 | CC(C)(C)OC(=O)N1CC=C2C(C#N)=C(N)C(C#N)(C#N)C(c3ccc4c(c3)OCO4)C2C1 (configuration not stated) | active: 35%
55 | CCCCc1nn2c(=O)cc(COC(=O)c3ccccc3NC(=O)c3cccs3)nc2s1 | inactive: 87%
56 | CN(C)c1nc(Cl)nc(NCCCC(=O)O)n1 | inactive: 77%
57 | CCCOc1ccc(NC(=O)CC2C(=O)N(c3ccc(C)cc3)C(=O)N2CCc2ccncc2)cc1 (configuration not stated) | inactive: 98%
58 | CC(=O)N1CCc2cc(S(=O)(=O)NC(CC(C)C)C(=O)NCc3ccccc3Cl)ccc21 (configuration not stated) | inactive: 76%
59 | Cc1c(NC(=O)c2cc(-c3ccccc3O)on2)c(=O)n(-c2ccccc2)n1C | active: 51%
60 | O=c1c(NCc2ccccc2Cl)nccn1-c1ccccc1 | active: 17%
61 | CCOC(=O)CCC(=O)Nc1nnc2n1CCS2 | inactive: 66%
62 | COc1ccc(CNC(=O)CCc2c(C)c3cc4c(C)c(C)oc4cc3oc2=O)cc1 | inactive: 90%
63 | Cc1ccc(C(=O)Nc2nnc(S(=O)(=O)N3CCCCCC3)s2)cc1 | inactive: 79%
64 | CC(=O)Nc1ccc(-c2nnc3n(Cc4ccc(C)cc4)c(=O)c4ccccc4n23)cc1 | inactive: 107%
65 | CC(=O)NC1Sc2ccccc2N=C1c1ccccc1 (configuration not stated) | inactive: 90%
66 | CCC(C)Nc1nc(NC)nc(NC(C)CC)n1 (configuration not stated) | inactive: 93%
67 | CCCCCOc1ccc(Cn2c(=O)oc3ccc(C)cc32)cc1OC | active: 4%
68 | CCC(=O)N1CCc2cc(Br)cc(S(=O)(=O)N3CCC(C(=O)Nc4ccccc4F)CC3)c21 | active: 43%
69 | Cc1ccc(S(=O)(=O)Cn2nnnc2CN(Cc2ccco2)Cc2cccs2)cc1 | inactive: 61%

Row | SMILES | survival
70 | Cc1ccc(C(=O)NCC(=O)OCc2cc(=O)n3ccsc3n2)cc1 | inactive: 74%
71 | CCc1ccc(NC(=O)CSc2ccc3nc(-c4ccc(OC)cc4)cn3n2)cc1 | inactive: 91%
72 | CC(C)Cn1c(C2CC(=O)N(c3ccccc3Cl)C2)nc2ccccc21 (configuration not stated) | inactive: 101%
73 | Cc1cccc(NC(=O)Cn2nnc(C(=O)NCc3ccco3)c2N)c1 | inactive: 121%
74 | Cc1oc(-c2ccc(C(=O)NCCN(C)C)cc2)nc1CS(=O)(=O)c1ccccc1 | inactive: 96%
75 | O=C(Cn1nc(-c2ccccc2)nc(Cc2ccccc2)c1=O)Nc1ccc(Cl)cc1 | inactive: 88%
76 | Cc1cccc(-n2c(N)cc(=O)nc2SCC(=O)Nc2ccc(F)cc2)c1C | inactive: 96%
77 | CCOc1ccc(NC(=O)C2CCCN(c3cnccn3)C2)cc1 (configuration not stated) | inactive: 86%
78 | Cc1ccc(NC(=O)CN2C(=O)C(C)(C)Oc3ccc(C(=O)N4CCCC4)cc32)cc1 | inactive: 68%
79 | CCOc1ccc(Cl)cc1CNCCCSc1nnnn1C | inactive: 77%
80 | CC(C)(C)C(=O)CSc1nnc(-c2ccccc2)o1 | inactive: 85%
81 | Clc1nc(Cl)nc(NNc2nc(Cl)nc(Cl)n2)n1 | inactive: 75%
82 | CCOC(=O)CNc1c(-c2ccc(OC)cc2)nc2ccc(Cl)cn12 | inactive: 58%
83 | CCN(CC)S(=O)(=O)c1ccc2c(c1)N(CC(=O)Nc1ccc(OC)cc1)C(=O)CS2 | inactive: 78%
84 | COc1nc(OC)nc(N2CCC(C(=O)NCC3CCCCC3)CC2)n1 | inactive: 78%
85 | CCCN(CCC)CCNC(=O)CN1C(=O)COc2ccc(S(=O)(=O)N3CCOCC3)cc21 | inactive: 79%
86 | Cc1cccc(OCC(=O)NCCc2nc3ccccc3[nH]2)c1C | inactive: 79%
87 | O=C(NCc1ccccc1Cl)C1CCN(C(=O)N2CCOc3ccccc32)CC1 | inactive: 83%
88 | CCC(CC)C(=O)Nc1nnc(S(=O)(=O)N2CCc3ccccc32)s1 | inactive: 73%
89 | CCOc1ccc(-n2nc(CO)c(C(=O)NCc3ccccn3)n2)cc1 | inactive: 53%
90 | COC(=O)c1ccccc1NC(=O)c1cnn(-c2ccc(F)cc2)c1-n1cccc1 | inactive: 95%
91 | Cc1ccc(Nc2nc(C(=O)NCC3CCCO3)cs2)cc1 (configuration not stated) | inactive: 95%
92 | NCCCNC(=O)c1ccco1 | inactive: 94%

— PubChem BioAssay AID463173 (ICCB-Longwood Screening Facility, Harvard Medical School, 2010)
